Measured values published in the RNAGym collection of RNA variant scans (doi:10.1093/nar/gkz1192).
The source gives no read counts; variants with many changes may rest on few reads.

B1: CPEB3 Ribozyme (parent)
chain: UAACAGGGGGCCACAGCAGAAGCGUUCACGUCGCAGCCCCUGUCAGAUUCUGGUGAAUCUGCGAAUUCUGCUGUAUAUCUC

Variants of: B1
Test: self-cleavage, relative activity (ratio to wild type); higher = more cleavage; in vitro, sequencing
Method in brief: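 CPEB3 self-cleaving ribozyme mutant libraries were made by rounds of error-prone PCR, barcoded, and transcribed in vitro with T7 RNA polymerase for 5 hours at 37°C. Cleavage occurred during transcription and a 15 min DNase I step before EDTA stop. RNAs were reverse transcribed with template switching and Illumina-sequenced, with DNA sequencing mapping barcodes to variants. Relative activity is the variant's cleaved/total read fraction divided by wild type's (minimum 5 reads), averaged across three batches.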

Variant	self-cleavage
UAACAGGGGGCCACGGCAGAAGCGUUCACGUCGCAGCCCCUGUCAGAUUCUGGUGAAUCUGCGGAUUCUGCUGUAUAACUC	0.7
UAACAGGGGGCCACGGCAGAAGCGUUCACGUCGCAGCCCCUGUCAGAUUCUGGUGAAUCUGCGAAUUCUGCUGUAUUUCAC	1.11
UAACAGGGGGCCACGGCAGAAGCGUUCACGUCGCAGCCCCUGUCAGAUUCUGGUGAAUCUGCGAAUUCUGCUGUAUUUCGC	0.48
UAACAGGGGGCCACGGCAGAAGCGUUCACGUCGCAGCCCCUGUCAGAUUCUGGUGAAUCUGCGUAUUCUGCCGUAUAUGUC	0.39
UAACAGGGGGCCACGGCAGAAGCGUUCAUGUCGCCGCCCCUGUCAGAUUCUGGUGAAUCUGCGAAUUCUGCUGUACAUCUC	0.12
UAACAGGGGGCCACGGCAGAAGCGUUCACGUCGCAGCCCCUGUCAGAUUCUGGUGAAUCUGCGUAUUCUGCUGUUUAUCUU	0.43
UAACAGGGGGCCACGGCAGAAGCGUUCACGUCGCAGCCCCUGUCAGAUUCUGGUGGAUCCGCGAAUUCUGCUGUAUAUCUC	0.26
UAACAGGGGGCCACGGCAGAAGCGUUCAUGUCGCAGCCCCUGUCAGAUUCUGGUGAAUCUGCGAAUUCUGCUGUAUAUCCC	0.21
UAACAGGGGGCCACGGCAGAAGCGUUCACGUCGCAGCCCCUGUCAGAUUCUGGUGACUUUGCGAAUUCUGCUGUAUAUCUU	0.22
UAACAGGGGGCCACGGCAGAAGCGUUCACGUCGCAGCCCCUGUCAGAUUCUGGUGAAUCUGCGAGUUCUACUGUAUAUCUC	0.18
UAACAGGGGGCCACGGCAGAAGCGUUCACGUCGCAGCCCCUGUCAGAUUCUGGUGAUUCUGCGGAUUCUGCUGUAUAUCUC	0.41
UAACAGGGGGCCACGGCAGAAGCGUUCACGUCGCAGCCCCUGUCAGAUUCUGGUGGAUCUGCGAAUUCUGCCGUAUAUUUC	1.27
UAACAGGGGGCCACGGCAGAAGCGUUCAUGUCGCAGCCCCUGUCGGAUUCCGGUGAAUCUGCGAGUUCCGCUGUAUACCUC	0.07
UAACAGGGGGCCACGGAAGAGGCGUUUACGUCGCAGCCCCUGUCAGAUUCUGGUGAAUCUGCGAAUUCUGCUGUAUAUCUC	0.33
UAACAGGGGGCCACGGCAGAAGCGUUCACGUCGCAGCCCCUGUCAGAUUCUGGUGAGUCUGCGAAUUCUGCUGGAUAUCUC	1.25
UAACAGGGGGCCACGGCAGAAGUGUUCACGUCGCAGCCCCUGUCAGAUCCUGGUGAAUCUGCGAAUUCUGCUGUAUAUCUC	0.03
UAACAGGGGGCCACGGAAGAAGCGUUCACGUCGCAGCCCCUGUCAGAUUCUGGUGAAUCUGCCAAUUCUGCUGUAUAUGUC	0.15
UAACAGGGGGCCACGGGAGAAGCGUACACGUCGCAGCCCCUGUCAGAUUCAGGUGAAUCUGCGAAUUCCGCUGUAUAUCAC	0.11
UAACAGGGGGCCACGGCAGAAGUGUUCACGUCACAGCCCCUGCCAGAUUAUGGUGAAUCUGCGAAUUCUGCUGUAUAUCUC	0.1
UAACAGGGGGCCACGGCAGAAGCGUUCAUGUCGCAGCCCCUGUCAGAUGCUGGUGAACCUGCGAAUUCUGCUGUAUAUCUC	0.13
UAACAGGGGGCCACGGCAGAAGCGUUCAUGUCGCAGCCCCUGCCAGAUUCUGGUGAAUCUGCGAAUUCUGCUGUAUAUCUC	0.07
UAACAGGGGGCCACGGCAGAAGCGUUCACGUCGCAGCCCCUGUCAGAUUCUGGUGUAUCUGCGAAUUCUGCUGUAUAUCCC	0.53
UAACAGGGGGCCACGGCAGAAGCGUUCACGUCGCAGCCCCUGUCAGAUUCUGGUGAGUCUGCGAAUUUAGCUGUAUAUCUC	0.27

Variant	self-cleavage
UAACAGGGGGCCACGGCAGAAGCGUUCACGUCGCAGCCCCUGUCAGAUUCUGGUGAGUCUGCGAAUUCUGCUGUAUUUCUC	0.47
UAACAGGGGGCCACGGCAGAAGAGUUCACGUUGCAGCCCCUGUCGGAUUCUGGUGAAUCUGCGAAUUCUGCUGUAUAUCUC	0.09
UAACAGGGGGCCACGGCAGAAGCGUUUACGUAGCAGCCCCUGUCAGAUUCUGGUGAAUCUGCGAAUUCUGCCGUAUAUCUC	0.11
UAACAGGGGGCCACGGCAGAAGGGAUCACGUCGCAGCCCCCGUCAGAUUCUGGUGAAUCUGCGAAUACUGCGGUACAUCUC	0.04
UAACAGGGGGCCACGGCAGAAGCGUUCACGUCGCAGCCCCUGUCAGAUUCUGGUGAGACUGCGAAUUCUGCUGUAUAUCUC	0.3
UAACAGGGGGCCACGGCAGAAGCGUUCACGUCGCAGCCCCUGUCAGAUUCUGGUGGAUCUGCAAACUCUGCUGUAUAUCUC	0.3
UAACAGGGGGCCACGGCAGAAGCGUUCACGUCGCAGCCCCUGUCAGAUUCUGGUGGAUCUGCGAAUUCCGCUGUAUAUCUC	0.25
UAACAGGGGGCCACGGCAGAAGUGUUCACGUCGCAGCCCCUGUCAGAUUCUGGUGAGUCUGCGGAUUCUGCUGUAUAUCUC	0.16
UAACAGGGGGCCACGGUAGAAGCGUUCACGUCGCAGCCCCUGUCAGAUUCUGGUGAAACUGCGAAUUCUGCUGUAUAUCUC	0.35
UAACAGGGGGCCACGGCAGAAGGGUUCACGUCGCAGCCCCUGUCAGAUUCUGGUGAAUCUGCGAAUGCUGCUGUAUAUCUC	0.17
UAACAGGGGGCCACGGCAGAAGCGUUCACGUCGCAGCCCCUGUCAGAUUCUGGUGUAUCUGCGGAUUCUGCUGUAUAUCUC	0.18
UAACAGGGGGCCACGGCAGAAGGGUUCACGUCGCAGCCCCUGUCAGGUUCUGGUGAAUCUGCGAAUUCUGCUGUAUAUCUC	0.42
UAACAGGGGGCCACGGCAGAAGCGUUCACGUCGCAGCCCCUGUCAGAUUCUGGUGACUCUGCGAAUUCUGCUGUAUAUCCC	0.15
UAACAGGGGGCCACGGCAGAAGCGUUCACGUCGCAGCCCCUGUCAGAUUCUGGUGACUCUGCGAAUUCAGCUGUAUAUCCC	0.13
UAACAGGGGGCCACGGGAGAAGCGUUCACGUCGCAGCCCCAGUCUGAUUCUGGUGAAUCUGCGAAUUCUGCUGUAUAUCUC	0.24
UAACAGGGGGCCACGGCAGAAGCGUUCACGUCGCAGCCCCUGUCAGAUUCUGGUGAAUCUGCGAGUUCUGCUGAAUAUCUC	0.52
UAACAGGGGGCCACGGAAGAAGCGUUCACGUCGCAGCCCCUGUCAGAUUCUGGUGGACCUGCCAAUUCUGCUGUAUAUAUC	0.13
UAACAGGGGGCCACGGGAGAAGCGUUCACGUCGCAGCCCCUGUCAGACUCUCGGGAAUCUGCGAAUUCUGCUGUAUAUCUC	0.03
UAACAGGGGGCCACGGCAGAAGCGUUCACGUAGCAGCCCCUGUCAGAUUCUGGUAAAUCUGCGAUUUCUGCUGUAUAUCUC	0.14
UAACAGGGGGCCACGGCAGAAGCGUUCACGUCGCAGCCCCUGUCAGUUUCUGGUGAAUCCGCGAAUUCUGCUGUAUAUCUC	0.18
UAACAGGGGGCCACGGCAGAAGCGUUCACGUCGCAGCCCCUGUCAGAUUCUGGUGAAUCUGCGAGUUCUGCAGUAUAUCUC	0.18
UAACAGGGGGCCACGGCAGAAGCGUUCACGUCGCAGCCCCUGUCAGAUUCUGGUGAAUCUGCGGAUUCUGCUAUAUAUCUC	1.22
UAACAGGGGGCCACGGCAGAAGCGUUCACGUCGCAGCCCCUGUCAGAUUCUGGUGGUUCUGCGAAUUCUGCUGUAUAUCUC	0.24

Variant	self-cleavage
UAACAGGGGGCCACGGCAGAAGCGUUCACGUCGCAGCCCCUGUCAGAUUCUGGUGAAUCUGCGAGUCCUGCUGUAUAUCUC	0.37
UAACAGGGGGCCACGGCAGAAGCGUUCAUGUCGCAGCCCCUGUCAGACUCUGGUGAACCUGCGAAUUCUGCUGUAUAUCUC	0.16
UAACAGGGGGCCACGGCAGAAGCGUUCAAGUCGCAGCCCCUGUCAGGUUCUGGUGUAUCUGCGAAUUCUGCUGUAUAUCUC	0.11
UAACAGGGGGCCACGGCAGAAGCGUUCAGGUCGCAGCCCCUGUCAGAUUCUGGUGGAUCUGCGAAUUCUGCUGUAUAUCUC	0.23
UAACAGGGGGCCACGGCAGAAGCGUUCACGUCGCAGCCCCUGUCAGAUUCUGGUGAAUCUGCGAAUUCUGCUGUAUGUCCC	1.17
UAACAGGGGGCCACGGCAGAAGGGCUCACGUCGCAGCCCCUGUCAGAUUCUGGUGAAUCUGCGAAUUCUGCUGUAUAUCUC	0.13
UAACAGGGGGCCACGGCAGAAGUGUUCACGUAGCAGCCACUGUCAGAUUCUGGUGAAUCUGCGAAAUCUGCUGUAUAUCAC	0.06
UAACAGGGGGCCACGGCAGAAGGGUUCACGUCGCAGCCCCCGUCAGAUUCUGGUGAAUCUGCGAAUCCUGCUGUAUAUCUC	0.04
UAACAGGGGGCCACGGCAGAAGUGCUCGCGGCGCAGCCCCUGUCAGAUUCUGGUGAAUCUGCGAAUUCUGCUGUAAAUCUC	0.08
UAACAGGGGGCCACGGCAGAAGCGUUCACGUCGCAGCCCCUGUCAGAUUCUGGUGAAUCUGCGGAUUCUGCUGUACAUCUC	0.64
UAACAGGGGGCCACGGCAGAAGCGUUGACGUCGCAGCCCCUGUCAGAUUCCGGUGAAUCUGCGAAUUCUGCUGUAUAUCUC	0.21
UAACAGGGGGCCACGGCAGAAGCGUUCACGUCGCAGCCCCUGUCAGAUUCUGGUGAAUCUGCGAGUUCUGCUGUAUGCCUC	0.23
UAACAGGGGGCCACGGCAGAAGCGUUCACGUCGCAGCCCCUGUCAGAUUCUGGUGAAUCUGCGAGCUCUGCUGUGUAUCUA	0.2
UAACAGGGGGCCACGGCAGAAGCGUUCACGUCGCAGCCCCUGUCAGAUUCUGGUGAAUCUGCGUAUUCUGCUGUAUAUUUC	0.43
UAACAGGGGGCCACGGAAGAAGCGUUCACGUCGCUGCCCCUGCCAGAUUCUGGUGAAUCUGCGAAUUCUGCUGUAUAUCUC	0.07
UAACAGGGGGCCACGGCAGAAGCGUUCAAGUCGCAGCCCCUGUCAGAUUCUGGCGUAUCUGCGGAUUCUGCUGUAUAUCUC	0.18
UAACAGGGGGCCACGGCAGAAGCGUUCACGUCGCAGCCCCUGUCAGAUUCUGGUGAUUCUGUGAAUUCUGCUGUAUAUCUC	0.35
UAACAGGGGGCCACGGCAGAAGCGUUCACGUCGCAGCCCCUGUCAGAUUCUGGUGGAUCUGCGAAUACUGCUGUAUAUCUC	0.18
UAACAGGGGGCCACGGCAGAAGUGUUCACGUCGCAGCCCCUGUCAGAUUCUGGUGAAUCCGCGAAUUCUGCUGUUUAUCUC	0.07
UAACAGGGGGCCACGGCAGAAGCGUUCAAGUCGCAGCCCCUGUCAGAUUCUGGUGAAUCUGCGAAUUCUGCCGUAUACCUC	0.38
UAACAGGGGGCCACGGCAGAAGCGUUCACGUCGCAGCCCCUGUCAGAUUCUGGUGGAUCUGCGAAUUCUGCCGUAUAUCUC	1.12
UAACAGGGGGCCACGGCAGAAGCGUUCACGUAGCAGCACCCGUCCGAUUCGGGUGAAUCUGCGAAUUCUGCUGUAUAUCUC	0.06
